# Test results taken from the supplement of paper PMC8728848.
# Some of the results follow.
# Experiments:
# Assay in all cases: glycan array binding signal (z-score within array); higher = stronger binding
# Conditions in all cases: glycan notation: IUPAC condensed, linker removed; mutation: R343K
# [1] = biological target: Neu5Ac(a2-3)Gal(b1-4)[Fuc(a1-3)]GlcNAc
# How it was run: (§1)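 Columns mapping to the same glycan were averaged after glycan names were converted to IUPAC-condensed notation. The data come from 3228 arrays in the Consortium for Functional Glycomics database, limited to those with an available protein sequence. Binding is reported as a within-array Z-score averaged across arrays of one protein sequence and across linkers.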
# [2] = biological target: Neu5Ac(a2-3)Gal(b1-4)[Fuc(a1-3)]GlcNAc(b1-3)Gal
# How it was run: as §1
# [3] = biological target: Neu5Ac(a2-3)Gal(b1-4)[Fuc(a1-3)]GlcNAc(b1-3)Gal(b1-4)GlcNAc
# How it was run: as §1
# [4] = biological target: Neu5Ac(a2-3)Gal(b1-4)[Fuc(a1-3)]GlcNAc(b1-3)Gal(b1-4)[Fuc(a1-3)]GlcNAc(b1-3)Gal(b1-4)[Fuc(a1-3)]GlcNAc
# How it was run: as §1
# [5] = biological target: Neu5Ac(a2-3)Gal(b1-4)[Fuc(a1-3)]GlcNAc(b1-6)[Gal(b1-3)]GalNAc
# How it was run: as §1
# [6] = biological target: Neu5Ac(a2-3)Gal(b1-4)[Fuc(a1-3)]GlcNAc6S
# How it was run: as §1
# [7] = biological target: Neu5Ac(a2-3)Gal6S(b1-4)GlcNAc
# How it was run: as §1
# [8] = biological target: Neu5Ac(a2-3)Gal6S(b1-4)[Fuc(a1-3)]GlcNAc
# How it was run: as §1
# Neu5Ac(a2-3)GalNAc = biological target: Neu5Ac(a2-3)GalNAc
# How it was run: as §1
# [9] = biological target: Neu5Ac(a2-3)GalNAc(b1-4)GlcNAc
# How it was run: as §1
# [10] = biological target: Neu5Ac(a2-3)[GalNAc(b1-4)]Gal(b1-4)Glc
# How it was run: as §1
# [11] = biological target: Neu5Ac(a2-3)[GalNAc(b1-4)]Gal(b1-4)GlcNAc
# How it was run: as §1
# [12] = biological target: Neu5Ac(a2-3)[Neu5Ac(a2-6)]GalNAc
# How it was run: as §1
# Neu5Ac(a2-6)Gal = biological target: Neu5Ac(a2-6)Gal
# How it was run: as §1
# Neu5Ac(a2-6)Gal(b1-4)Glc = biological target: Neu5Ac(a2-6)Gal(b1-4)Glc
# How it was run: as §1
# [13] = biological target: Neu5Ac(a2-6)Gal(b1-4)GlcNAc
# How it was run: as §1
# [14] = biological target: Neu5Ac(a2-6)Gal(b1-4)GlcNAc(b1-2)Man(a1-3)[Gal(b1-4)GlcNAc(b1-2)Man(a1-6)]Man(b1-4)GlcNAc(b1-4)GlcNAc
# How it was run: as §1
# [15] = biological target: Neu5Ac(a2-6)Gal(b1-4)GlcNAc(b1-2)Man(a1-3)[GlcNAc(b1-2)Man(a1-6)]Man(b1-4)GlcNAc(b1-4)GlcNAc
# How it was run: as §1
# [16] = biological target: Neu5Ac(a2-6)Gal(b1-4)GlcNAc(b1-2)Man(a1-3)[GlcNAc(b1-2)Man(b1-4)GlcNAc(b1-2)Man(a1-6)]Man(b1-4)GlcNAc(b1-4)GlcNAc
# How it was run: as §1
# [17] = biological target: Neu5Ac(a2-6)Gal(b1-4)GlcNAc(b1-2)Man(a1-3)[Neu5Ac(a2-6)Gal(b1-4)GlcNAc(b1-2)Man(a1-6)]Man(b1-4)GlcNAc(b1-4)GlcNAc
# How it was run: as §1
# [18] = biological target: Neu5Ac(a2-6)Gal(b1-4)GlcNAc(b1-2)Man(a1-6)[Gal(b1-4)GlcNAc(b1-2)Man(a1-3)]Man(b1-4)GlcNAc(b1-4)GlcNAc
# How it was run: as §1
# [19] = biological target: Neu5Ac(a2-6)Gal(b1-4)GlcNAc(b1-2)Man(a1-6)[GlcNAc(b1-2)Man(a1-3)]Man(b1-4)GlcNAc(b1-4)GlcNAc
# How it was run: as §1
# [20] = biological target: Neu5Ac(a2-6)Gal(b1-4)GlcNAc(b1-3)Gal(b1-4)GlcNAc
# How it was run: as §1
# [21] = biological target: Neu5Ac(a2-6)Gal(b1-4)GlcNAc(b1-3)Gal(b1-4)[Fuc(a1-3)]GlcNAc(b1-3)Gal(b1-4)[Fuc(a1-3)]GlcNAc
# How it was run: as §1
# [22] = biological target: Neu5Ac(a2-6)Gal(b1-4)GlcNAc6S
# How it was run: as §1
# Neu5Ac(a2-6)GalNAc = biological target: Neu5Ac(a2-6)GalNAc
# How it was run: as §1
# [23] = biological target: Neu5Ac(a2-6)GalNAc(b1-4)GlcNAc
# How it was run: as §1
# Neu5Ac(a2-8)Neu5Ac = biological target: Neu5Ac(a2-8)Neu5Ac
# How it was run: as §1
# [24] = biological target: Neu5Ac(a2-8)Neu5Ac(a2-3)Gal(b1-4)Glc
# How it was run: as §1
# [25] = biological target: Neu5Ac(a2-8)Neu5Ac(a2-3)[GalNAc(b1-4)]Gal(b1-4)Glc
# How it was run: as §1
# [26] = biological target: Neu5Ac(a2-8)Neu5Ac(a2-8)Neu5Ac
# How it was run: as §1
# [27] = biological target: Neu5Ac(a2-8)Neu5Ac(a2-8)Neu5Ac(a2-3)Gal(b1-4)Glc
# How it was run: as §1
# [28] = biological target: Neu5Ac(a2-8)Neu5Ac(a2-8)Neu5Ac(a2-3)[GalNAc(b1-4)]Gal(b1-4)Glc
# How it was run: as §1
# [29] = biological target: Neu5Ac(a2-8)Neu5Ac(a2-8)Neu5Ac(a2-8)Neu5Ac(a2-3)[GalNAc(b1-4)]Gal(b1-4)Glc
# How it was run: as §1
# [30] = biological target: Neu5Ac(b2-6)Gal(b1-4)GlcNAc
# How it was run: as §1
# Neu5Ac(b2-6)GalNAc = biological target: Neu5Ac(b2-6)GalNAc
# How it was run: as §1
# [31] = biological target: Neu5Ac9Ac(a2-6)Gal(b1-4)GlcNAc
# How it was run: as §1
# [32] = biological target: Neu5Gc(a2-3)Gal(b1-3)GlcNAc
# How it was run: as §1
# [33] = biological target: Neu5Gc(a2-3)Gal(b1-3)[Fuc(a1-4)]GlcNAc
# How it was run: as §1
# Neu5Gc(a2-3)Gal(b1-4)Glc = biological target: Neu5Gc(a2-3)Gal(b1-4)Glc
# How it was run: as §1
# [34] = biological target: Neu5Gc(a2-3)Gal(b1-4)GlcNAc
# How it was run: as §1
# [35] = biological target: Neu5Gc(a2-3)Gal(b1-4)[Fuc(a1-3)]GlcNAc
# How it was run: as §1
# [36] = biological target: Neu5Gc(a2-6)Gal(b1-4)GlcNAc
# How it was run: as §1
# Neu5Gc(a2-6)GalNAc = biological target: Neu5Gc(a2-6)GalNAc
# How it was run: as §1
# [37] = biological target: Neu5Gc(b2-6)Gal(b1-4)GlcNAc
# How it was run: as §1
binder,measurement,setting,value
Surfactant Protein D (Human); Neck + Carbohydrate Recognition Domain (NCRD) (Homo sapiens) (protein) MLLFLLSALVLLTQPLGYLEAEMKTYSHRTMPSACTLVMCSSVESGLPGRDRDGREGPRGEKGDPGLPGAAGQAGMPGQAGPVGPKGDNGSVGEPGPKGDTGPSGPPGPPGVPGPAGREGALGKQGNIGPQGKPGPKGEAGPKGEVGAPGMQGSAGARGLAGPKGERGVPGERGVPGNTGAAGSAGAMGPQGSPGARGPPGLKGDKGIPGDKGAKGESGLPDVASLRQQVEALQGQVQHLQAAFSQYKKVELFPNGQSVGEKIFKTAQFVKPFTEAQLLCTQAGGQLASPRSAAENAALQQLVVAKNEAAFLSMTDSKTEGKFTYPTGESLVYSNWAPGEPNDDGGSEDCVEIFTNGKWNDKACGEKRLVVCEF,glycan array binding signal (z-score),[1],-0.147
same,glycan array binding signal (z-score),[2],-0.157
same,glycan array binding signal (z-score),[3],-0.151
same,glycan array binding signal (z-score),[4],-0.154
same,glycan array binding signal (z-score),[5],-0.12
same,glycan array binding signal (z-score),[6],-0.149
same,glycan array binding signal (z-score),[7],-0.148
same,glycan array binding signal (z-score),[8],-0.153
same,glycan array binding signal (z-score),Neu5Ac(a2-3)GalNAc,-0.089
same,glycan array binding signal (z-score),[9],-0.153
same,glycan array binding signal (z-score),[10],-0.152
same,glycan array binding signal (z-score),[11],-0.147
same,glycan array binding signal (z-score),[12],-0.15
same,glycan array binding signal (z-score),Neu5Ac(a2-6)Gal,-0.155
same,glycan array binding signal (z-score),Neu5Ac(a2-6)Gal(b1-4)Glc,-0.151
same,glycan array binding signal (z-score),[13],-0.155
same,glycan array binding signal (z-score),[14],-0.148
same,glycan array binding signal (z-score),[15],-0.147
same,glycan array binding signal (z-score),[16],-0.153
same,glycan array binding signal (z-score),[17],-0.147
same,glycan array binding signal (z-score),[18],-0.148
same,glycan array binding signal (z-score),[19],-0.145
same,glycan array binding signal (z-score),[20],-0.155
same,glycan array binding signal (z-score),[21],-0.142
same,glycan array binding signal (z-score),[22],-0.155
same,glycan array binding signal (z-score),Neu5Ac(a2-6)GalNAc,-0.156
same,glycan array binding signal (z-score),[23],-0.155
same,glycan array binding signal (z-score),Neu5Ac(a2-8)Neu5Ac,-0.146
same,glycan array binding signal (z-score),[24],-0.149
same,glycan array binding signal (z-score),[25],-0.154
same,glycan array binding signal (z-score),[26],-0.154
same,glycan array binding signal (z-score),[27],-0.155
same,glycan array binding signal (z-score),[28],-0.156
same,glycan array binding signal (z-score),[29],-0.155
same,glycan array binding signal (z-score),[30],-0.147
same,glycan array binding signal (z-score),Neu5Ac(b2-6)GalNAc,-0.155
same,glycan array binding signal (z-score),[31],-0.15
same,glycan array binding signal (z-score),[32],-0.158
same,glycan array binding signal (z-score),[33],-0.145
same,glycan array binding signal (z-score),Neu5Gc(a2-3)Gal(b1-4)Glc,-0.152
same,glycan array binding signal (z-score),[34],-0.153
same,glycan array binding signal (z-score),[35],-0.151
same,glycan array binding signal (z-score),[36],-0.155
same,glycan array binding signal (z-score),Neu5Gc(a2-6)GalNAc,-0.149
same,glycan array binding signal (z-score),[37],-0.145
